# Results: the supplement of paper PMC8728848
# The other results are listed elsewhere or left out.
# B1: PpFlo3 (Pichia pastoris) (protein)
# chain: MGSSHHHHHHSSGLVPRGSHMQESGNGTTSDTAYACDIGATPFDGFNATIYQYQASDDNSIQDPVFMSTGYLQRNQLHSTTGVTNPGFNIFTAGVATTTLYGIPNVNYQNMLLELKGYFRADASGNYGLSLRNIDDSAILFFGRETAFECCNENLIPLDEAPTDYSLFTIKEGEASTNPDSYTYTQYLEAGRYYPVRTFFANIRTRAVFNFTMTLPDGSELTDFQNYIFQFGALNQ
# Legend:
# Experiment in all cases: glycan array binding signal (z-score within array); higher = stronger binding
# Conditions in all cases: glycan notation: IUPAC condensed, linker removed
# [1] = target: GlcNAc(a1-4)Gal(b1-4)GlcNAc(b1-3)Gal(b1-4)GlcNAc
# In short: (§1)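 Arrays were curated from the Consortium for Functional Glycomics database, 3228 in total, and kept only where the protein sequence was available. Binding is expressed as a within-array Z-score. This score was averaged across arrays of the same protein sequence at different concentrations or buffers and across linkers, and negative values can be read as non-binding.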
# [2] = target: GlcNAc(a1-4)Gal(b1-4)GlcNAc(b1-3)Gal(b1-4)GlcNAc(b1-3)Gal(b1-4)GlcNAc
# In short: as §1
# [3] = target: GlcNAc(a1-4)Gal(b1-4)GlcNAc(b1-3)Gal(b1-4)[Fuc(a1-3)]GlcNAc(b1-3)Gal(b1-4)[Fuc(a1-3)]GlcNAc
# In short: as §1
# [4] = target: GlcNAc(a1-6)Gal(b1-4)GlcNAc
# In short: as §1
# [5] = target: GlcNAc(b1-2)Gal(b1-3)GalNAc
# In short: as §1
# [6] = target: GlcNAc(b1-2)Man(a1-3)[GlcNAc(b1-2)Man(a1-6)]Man(b1-4)GlcNAc(b1-4)GlcNAc
# In short: as §1
# [7] = target: GlcNAc(b1-2)Man(a1-3)[GlcNAc(b1-2)Man(a1-6)]Man(b1-4)GlcNAc(b1-4)[Fuc(a1-6)]GlcNAc
# In short: as §1
# [8] = target: GlcNAc(b1-2)Man(a1-3)[GlcNAc(b1-4)][GlcNAc(b1-2)Man(a1-6)]Man(b1-4)GlcNAc(b1-4)GlcNAc
# In short: as §1
# [9] = target: GlcNAc(b1-2)[GlcNAc(b1-4)]Man(a1-3)[GlcNAc(b1-2)Man(a1-6)]Man(b1-4)GlcNAc(b1-4)GlcNAc
# In short: as §1
# [10] = target: GlcNAc(b1-2)[GlcNAc(b1-4)]Man(a1-3)[GlcNAc(b1-4)][GlcNAc(b1-2)Man(a1-6)]Man(b1-4)GlcNAc(b1-4)GlcNAc
# In short: as §1
# [11] = target: GlcNAc(b1-2)[GlcNAc(b1-4)]Man(a1-3)[GlcNAc(b1-4)][GlcNAc(b1-2)[GlcNAc(b1-6)]Man(a1-6)]Man(b1-4)GlcNAc(b1-4)GlcNAc
# In short: as §1
# [12] = target: GlcNAc(b1-2)[GlcNAc(b1-6)]Man(a1-6)[GlcNAc(b1-2)Man(a1-3)]Man(b1-4)GlcNAc(b1-4)GlcNAc
# In short: as §1
# [13] = target: GlcNAc(b1-2)[GlcNAc(b1-6)]Man(a1-6)[GlcNAc(b1-2)Man(a1-3)][GlcNAc(b1-4)]Man(b1-4)GlcNAc(b1-4)GlcNAc
# In short: as §1
# [14] = target: GlcNAc(b1-3)Gal
# In short: as §1
# [15] = target: GlcNAc(b1-3)Gal(b1-3)GalNAc
# In short: as §1
# [16] = target: GlcNAc(b1-3)Gal(b1-4)Glc
# In short: as §1
# [17] = target: GlcNAc(b1-3)Gal(b1-4)GlcNAc
# In short: as §1
# [18] = target: GlcNAc(b1-3)Gal(b1-4)GlcNAc(b1-3)Gal(b1-4)GlcNAc
# In short: as §1
# [19] = target: GlcNAc(b1-3)GalNAc
# In short: as §1
# [20] = target: GlcNAc(b1-3)Man
# In short: as §1
# [21] = target: GlcNAc(b1-3)[GlcNAc(b1-4)][GlcNAc(b1-6)]GlcNAc
# In short: as §1
# [22] = target: GlcNAc(b1-3)[GlcNAc(b1-6)]Gal(b1-4)GlcNAc
# In short: as §1
# [23] = target: GlcNAc(b1-3)[GlcNAc(b1-6)]GalNAc
# In short: as §1
# [24] = target: GlcNAc(b1-4)Gal(b1-4)GlcNAc
# In short: as §1
# [25] = target: GlcNAc(b1-4)GlcNAc
# In short: as §1
# [26] = target: GlcNAc(b1-4)GlcNAc(b1-4)GlcNAc
# In short: as §1
# [27] = target: GlcNAc(b1-4)GlcNAc(b1-4)GlcNAc(b1-4)GlcNAc(b1-4)GlcNAc
# In short: as §1
# [28] = target: GlcNAc(b1-4)GlcNAc(b1-4)GlcNAc(b1-4)GlcNAc(b1-4)GlcNAc(b1-4)GlcNAc
# In short: as §1
# [29] = target: GlcNAc(b1-4)[GlcNAc(b1-6)]GalNAc
# In short: as §1
# [30] = target: GlcNAc(b1-6)Gal(b1-4)GlcNAc
# In short: as §1
# [31] = target: GlcNAc(b1-6)GalNAc
# In short: as §1
# [32] = target: GlcNAc3Prop(b1-4)GlcNAc
# In short: as §1
# [33] = target: GlcNAc6S(b1-3)Gal(b1-4)GlcNAc
# In short: as §1
# [34] = target: Kdn(a2-3)Gal(b1-3)GalNAc
# In short: as §1
# [35] = target: Kdn(a2-3)Gal(b1-3)GlcNAc
# In short: as §1
# [36] = target: Kdn(a2-3)Gal(b1-4)Glc
# In short: as §1
# [37] = target: Kdn(a2-3)Gal(b1-4)GlcNAc
# In short: as §1
# [38] = target: Kdn(a2-3)Gal(b1-4)[Fuc(a1-3)]GlcNAc
# In short: as §1
# [39] = target: Kdn(a2-6)Gal(b1-4)GlcNAc
# In short: as §1
# [40] = target: Man(a1-2)Man(a1-2)Man(a1-3)Man
# In short: as §1
# [41] = target: Man(a1-2)Man(a1-2)Man(a1-6)[Man(a1-3)]Man
# In short: as §1
# [42] = target: Man(a1-2)Man(a1-3)Man
# In short: as §1
# [43] = target: Man(a1-2)Man(a1-3)[Man(a1-2)Man(a1-6)]Man
# In short: as §1
# [44] = target: Man(a1-2)Man(a1-3)[Man(a1-2)Man(a1-6)]Man(a1-6)[Man(a1-2)Man(a1-2)Man(a1-3)]Man
# In short: as §1
# [45] = target: Man(a1-2)Man(a1-3)[Man(a1-2)Man(a1-6)]Man(a1-6)[Man(a1-2)Man(a1-2)Man(a1-3)]Man(b1-4)GlcNAc(b1-4)GlcNAc
# In short: as §1
binder,measurement,setting,value
B1,glycan array binding signal (z-score),[1],-0.155
same,glycan array binding signal (z-score),[2],-0.283
same,glycan array binding signal (z-score),[3],-0.296
same,glycan array binding signal (z-score),[4],0.341
same,glycan array binding signal (z-score),[5],-0.287
same,glycan array binding signal (z-score),[6],3.52
same,glycan array binding signal (z-score),[7],-0.28
same,glycan array binding signal (z-score),[8],2.27
same,glycan array binding signal (z-score),[9],4.67
same,glycan array binding signal (z-score),[10],2.14
same,glycan array binding signal (z-score),[11],1.25
same,glycan array binding signal (z-score),[12],-0.22
same,glycan array binding signal (z-score),[13],1.07
same,glycan array binding signal (z-score),[14],-0.276
same,glycan array binding signal (z-score),[15],-0.273
same,glycan array binding signal (z-score),[16],-0.291
same,glycan array binding signal (z-score),[17],-0.259
same,glycan array binding signal (z-score),[18],-0.072
same,glycan array binding signal (z-score),[19],-0.266
same,glycan array binding signal (z-score),[20],6.76
same,glycan array binding signal (z-score),[21],-0.266
same,glycan array binding signal (z-score),[22],-0.274
same,glycan array binding signal (z-score),[23],1.75
same,glycan array binding signal (z-score),[24],0.533
same,glycan array binding signal (z-score),[25],0.856
same,glycan array binding signal (z-score),[26],-0.213
same,glycan array binding signal (z-score),[27],0.71
same,glycan array binding signal (z-score),[28],-0.284
same,glycan array binding signal (z-score),[29],-0.243
same,glycan array binding signal (z-score),[30],-0.296
same,glycan array binding signal (z-score),[31],0.169
same,glycan array binding signal (z-score),[32],-0.285
same,glycan array binding signal (z-score),[33],-0.095
same,glycan array binding signal (z-score),[34],-0.267
same,glycan array binding signal (z-score),[35],-0.273
same,glycan array binding signal (z-score),[36],-0.287
same,glycan array binding signal (z-score),[37],-0.237
same,glycan array binding signal (z-score),[38],-0.277
same,glycan array binding signal (z-score),[39],-0.151
same,glycan array binding signal (z-score),[40],-0.194
same,glycan array binding signal (z-score),[41],-0.274
same,glycan array binding signal (z-score),[42],-0.203
same,glycan array binding signal (z-score),[43],-0.266
same,glycan array binding signal (z-score),[44],-0.301
same,glycan array binding signal (z-score),[45],-0.266
